Test results published in the supplement of paper PMC8748497.
Where “and” joins values, the source holds several entries; their conditions need not be identical. Equal entries are not always repeated. This is one part of the list.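 Rule for the calls: active = GRHL reporter fold change of at least 2 over DMSO at 10 µM; inactive = below 2-fold.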 Most values come without repeats; read them as rough.

These compounds were tested on HEK293 GRHL-luciferase reporter (assay: GRHL luciferase reporter activity, fold change over DMSO control; higher = stronger GRHL reporter activation). Conditions: 10 µM; 24 h.
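Note: stable HEK293 line carrying repeated GRHL consensus sites upstream of a minimal promoter driving luciferase, luminescence read 24 h post-treatment, normalized to 0.5% DMSO vehicle wells.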

Row | Compound | GRHL luciferase reporter activity
1 | CC(=O)Nc1ccc(S(=O)(=O)c2ccc(NC(C)=O)cc2)cc1 | inactive: 1.14
2 | CCN1CC(CCN2CCOCC2)C(c2ccccc2)(c2ccccc2)C1=O (stereo not given) | inactive: 0.936
3 | COc1c(O)cc(O)cc1O | inactive: 0.754
4 | Clc1ccc(CSC(Cn2ccnc2)c2ccc(Cl)cc2Cl)cc1 (stereo not given) | inactive: 1.6
5 | CC[C@H]1OC(=O)[C@H](C)[C@@H](O[C@H]2C[C@@](C)(OC)[C@@H](O)[C@H](C)O2)[C@H](C)[C@@H](O[C@@H]2O[C@H](C)C[C@H](N(C)C)[C@H]2O)[C@](C)(OC)C[C@@H](C)C(=O)[C@H](C)[C@@H](O)[C@]1(C)O | inactive: 0.945
6 | COc1ccc(C2CNC(=O)C2)cc1OC1CCCC1 (stereo not given) | inactive: 1.11
7 | N=C(N)N1CCc2ccccc2C1 | inactive: 0.961
8 | COCCc1ccc(OCC(O)CNC(C)C)cc1 (stereo not given) | inactive: 0.858
9 | CC(C)=CCc1c2c(c3occ(-c4ccc(O)c(O)c4)c(=O)c3c1O)C=CC(C)(C)O2 | inactive: 1.64
10 | CC(C)=CCC/C(C)=C/CC/C(C)=C/CC/C(C)=C/CC/C(C)=C/CC/C(C)=C/CC/C(C)=C/CC/C(C)=C/CC/C(C)=C/CO | inactive: 1.02
11 | O=C1CCC[C@@H]2[C@H]3CCC[N+]4([O-])CCC[C@@H](CN12)[C@@H]34 (stereo not given in full) | inactive: 1.05
12 | COc1ccccc1O | inactive: 1.12
13 | Cc1cn[nH]c1 | inactive: 0.931 and inactive: 1.41
14 | Oc1cc(O)c2c(c1)O[C@H](c1cc(O)c(O)c(O)c1)[C@H](O)[C@H]2c1c(O)cc(O)c2c1O[C@H](c1cc(O)c(O)c(O)c1)[C@H](O)[C@H]2c1c(O)cc(O)c2c1O[C@H](c1cc(O)c(O)c(O)c1)[C@H](O)C2 | inactive: 1.06
15 | O=C(O)/C=C/C=C/c1ccccc1 | inactive: 1.02
16 | N=C(N)NS(=O)(=O)c1ccc(N)cc1 | inactive: 1.05
17 | CCC[C@@H]1C[C@@H](C(=O)N[C@@H]([C@H]2O[C@H](SC)[C@H](O)[C@@H](O)[C@H]2O)[C@@H](C)O)N(C)C1 | inactive: 0.914
18 | Cc1ccnc2c1NC(=O)c1cccnc1N2C1CC1 | inactive: 1.14
19 | CCC(C(=O)O)c1ccccc1 (stereo not given) | inactive: 1.2
20 | CC(=O)O[C@H]1CC[C@]2(C)C3=C(CC[C@H]2C1(C)C)[C@]1(C)CC[C@H]([C@H](C)CCC=C(C)C)[C@@]1(C)CC3 | inactive: 1

Row | Compound | GRHL luciferase reporter activity
21 | CNCCCC1c2ccccc2C=Cc2ccccc21 | inactive: 0.999
22 | Cc1cc(/C=C/c2ccc3cc(N(C)C)ccc3[n+]2C)c(C)n1-c1ccccc1 | inactive: 0.778
23 | CN1CCC[C@@H]1CCO[C@](C)(c1ccccc1)c1ccc(Cl)cc1 | inactive: 0.428
24 | O=C(O)CCCCC(=O)O | inactive: 1.05
25 | O=c1oc2ccccc2c(O)c1Cc1c(O)c2ccccc2oc1=O | inactive: 1.5
26 | CC1(C)CCC2=C(O1)c1ccccc1C(=O)C2=O [beta-LAPACHONE] | inactive: 0.12
27 | Nc1nc2ccc(OC(F)(F)F)cc2s1 | active: 4.91
28 | COc1c(C)c2c(c(O)c1C/C=C(\C)CCC(=O)OCCN1CCOCC1)C(=O)OC2 | inactive: 1.2
29 | C[C@H](N)CO | inactive: 0.98
30 | COc1cc(/C=C/C(=O)N2CCCCCCC2)cc(OC)c1OC | inactive: 1.52
31 | NCCS(=O)(=O)O | inactive: 0.915
32 | O=C(O)c1cc(=O)c2c(OCC(O)COc3cccc4oc(C(=O)O)cc(=O)c34)cccc2o1 | inactive: 1
33 | C=C(C)[C@@H]1CC=C(C(=O)O)CC1 | inactive: 1.08
34 | CN1CC(O)c2cc(N=NC(N)=O)c(O)cc21 (stereo not given) | inactive: 0.869
35 | CCCSc1ccc2[nH]c(NC(=O)OC)nc2c1 | inactive: 0.89
36 | CCOC(=O)C1=C(C)NC(C)=C(C(=O)OC)C1c1cccc(Cl)c1Cl (stereo not given) | inactive: 1.07
37 | COC(=O)C1=C(C)NC(C)=C(C(=O)OCC(C)C)C1c1ccccc1[N+](=O)[O-] (stereo not given) | inactive: 1.08
38 | CN(C)CCC=C1c2ccccc2C=Cc2ccccc21 | inactive: 0.849
39 | CC1(C)OC(=O)C(OCC2CC2)=C1c1ccc(S(C)(=O)=O)cc1 | inactive: 1.05
40 | COc1cc(C/C=C/c2ccccc2)c(OC)cc1O | inactive: 1.36
